# From PubChem BioAssay (NCATS)
# Inconclusive means that the source gave no clear call. Such entries were picked first, then a sample of the others. No potency is given beside an inconclusive call; the fits are too rough. Activity calls are given as the source filed them. The call rests on the fitted dose curve; in most records, active means well fitted inhibition curve with a large enough effect; inconclusive means small, poorly fitted or top-dose-only effect; inactive means no such curve, though single readings can be large or run the other way.
# Biological target: ATPase family AAA domain-containing protein 5 (Homo sapiens) (UniProt Q96QE3)
# Chain of UniProt Q96QE3 (Q96QE3 whole entry, looked up, the tested form may be a part): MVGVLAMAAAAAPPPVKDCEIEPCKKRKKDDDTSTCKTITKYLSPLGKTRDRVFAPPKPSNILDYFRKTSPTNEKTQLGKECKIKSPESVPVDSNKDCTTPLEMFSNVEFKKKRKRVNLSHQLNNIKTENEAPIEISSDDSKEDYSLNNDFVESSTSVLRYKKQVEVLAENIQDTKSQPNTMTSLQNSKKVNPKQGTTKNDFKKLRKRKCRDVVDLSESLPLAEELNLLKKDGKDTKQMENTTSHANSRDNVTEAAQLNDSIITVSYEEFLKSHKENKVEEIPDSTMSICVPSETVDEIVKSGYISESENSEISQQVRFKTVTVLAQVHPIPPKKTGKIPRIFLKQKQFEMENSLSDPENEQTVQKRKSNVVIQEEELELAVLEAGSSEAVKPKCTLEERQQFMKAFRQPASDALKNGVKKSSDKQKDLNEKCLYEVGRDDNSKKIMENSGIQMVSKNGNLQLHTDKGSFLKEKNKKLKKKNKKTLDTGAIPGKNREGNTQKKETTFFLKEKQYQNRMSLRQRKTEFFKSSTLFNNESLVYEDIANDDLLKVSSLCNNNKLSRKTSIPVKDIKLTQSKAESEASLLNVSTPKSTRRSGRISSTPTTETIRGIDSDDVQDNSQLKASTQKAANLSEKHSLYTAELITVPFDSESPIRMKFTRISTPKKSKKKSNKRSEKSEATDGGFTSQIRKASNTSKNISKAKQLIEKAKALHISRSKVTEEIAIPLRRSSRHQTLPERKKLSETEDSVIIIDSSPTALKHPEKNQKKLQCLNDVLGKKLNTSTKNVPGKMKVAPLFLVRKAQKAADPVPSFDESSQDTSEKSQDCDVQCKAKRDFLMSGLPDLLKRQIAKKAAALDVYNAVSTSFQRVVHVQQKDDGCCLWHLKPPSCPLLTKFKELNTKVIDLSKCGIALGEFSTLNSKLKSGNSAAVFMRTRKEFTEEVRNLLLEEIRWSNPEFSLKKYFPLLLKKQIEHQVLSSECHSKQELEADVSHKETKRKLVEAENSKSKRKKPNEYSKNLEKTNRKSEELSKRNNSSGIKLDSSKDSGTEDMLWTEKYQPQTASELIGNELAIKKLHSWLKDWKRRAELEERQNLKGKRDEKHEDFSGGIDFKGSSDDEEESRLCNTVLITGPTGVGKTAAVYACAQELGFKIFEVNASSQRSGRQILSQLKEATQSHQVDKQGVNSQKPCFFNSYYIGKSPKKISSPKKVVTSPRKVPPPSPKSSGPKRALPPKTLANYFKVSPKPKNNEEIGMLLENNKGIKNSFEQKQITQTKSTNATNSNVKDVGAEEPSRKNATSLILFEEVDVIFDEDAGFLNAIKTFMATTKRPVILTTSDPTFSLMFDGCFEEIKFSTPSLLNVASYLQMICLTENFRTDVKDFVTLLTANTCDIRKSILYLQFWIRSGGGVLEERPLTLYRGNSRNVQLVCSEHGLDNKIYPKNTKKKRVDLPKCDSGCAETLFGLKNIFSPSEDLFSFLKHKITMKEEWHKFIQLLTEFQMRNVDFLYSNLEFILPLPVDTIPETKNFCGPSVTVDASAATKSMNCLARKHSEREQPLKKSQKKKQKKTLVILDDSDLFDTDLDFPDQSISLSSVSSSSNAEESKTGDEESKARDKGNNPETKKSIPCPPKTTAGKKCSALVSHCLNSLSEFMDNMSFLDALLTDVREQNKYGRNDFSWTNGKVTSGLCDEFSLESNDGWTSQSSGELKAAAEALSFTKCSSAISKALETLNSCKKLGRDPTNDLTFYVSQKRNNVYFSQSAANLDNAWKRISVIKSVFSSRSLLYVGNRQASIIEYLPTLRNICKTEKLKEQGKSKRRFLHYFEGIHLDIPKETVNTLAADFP
# Experiment: qHTS screen for small molecules that inhibit ELG1-dependent DNA repair in human embryonic kidney (HEK293T) cells expressing luciferase-tagged ELG1: Hit Confirmation using MMS Stimulated ELG1 (AID 624249); further: nearly all actives have a fitted effect of over 60% in size
# Conditions: HEK293T luciferase-tagged ELG1 level; series mostly up to 46.1 µM
# Source text: Cancer cells divide rapidly compared to normal cells in the body. During cell division, cancer cells need to duplicate their genome by DNA replication. The failure of genome duplication leads to cancer cells' death. Therefore, inhibitors of DNA replication could specifically kill cancer cells. Based on this concept, many chemotherapeutic agents were developed and have been used to treat cancer patients. However, there are a limited number of agents available in the clinical setting, and some of those that do exist have low efficacy and severe side effects. Therefore, if we can find the compounds that effectively block DNA replication either by directly damaging DNA or by inhibiting other cellular mechanisms, the options for cancer treatment will be broadened. With this in mind, we developed a quantitative high-throughput ELG1-luciferase reporter gene assay. Small molecules that specifically block ELG1 function in response to DNA damage can be identified by monitoring the suppression of luciferase activity. Since ELG1 defines a pathway for repairing DNA damage, agents blocking ELG1 function can be used to sensitize cancer cells to chemotherapeutic agents whose mechanism of action involves the induction of DNA damage.
# NIH Molecular Libraries Probe Production Network [MLPCN]
# NIH Chemical Genomics Center [NCGC]
# Assay Provider: Kyungjae Myung, NHGRI, NIH
# ELG1-luc HEK293T cells will be seeded in 1536-well plates at a density of 2,000 cells/well. Approximately 5 hours after plating, compounds will be added to the plate by pin tool transfer and MMS will be added by FRD dispenser (final concentration of MMS = 10 µM). 16 hours following the addition of the compounds, luciferase activity will be measured using Amplight reagent.
# Potency means the concentration at half of the fitted maximal effect; tags describe the fitted curve by direction and shape.
row,Structure (SMILES),Potency
1,COc1cnc(-c2ccccn2)nc1Sc1ccc(Cl)cc1,"inconclusive [inhibitor, single point]"
2,CCOc1ccc(C(C(=O)NCC2CCCO2)N(Cc2cccs2)C(=O)c2snc(C(N)=O)c2N)cc1 (stereo not given),active: 7.91 µM
3,CCOc1ccccc1/C=C/c1onc(C)c1S(=O)(=O)N1CCC(C(=O)N2CCCCCC2)CC1,"inconclusive [inhibitor, partial curve]"
4,O=C1c2cccc(OCc3ccc(F)cc3)c2CCN1Cc1ccc(F)cc1,active: 3.53 µM
5,c1ccc(Cn2nnnc2C(c2cccnc2)N2CCN(C3CCCCC3)CC2)cc1 (stereo not given),"inconclusive [inhibitor, partial curve]"
6,CC(C)(C)OC(=O)C[C@@H]1C/C=C\C[C@@H](CC(=O)N[C@H](CO)Cc2ccccc2)C(=O)N2CCC[C@H]2COC1=O,"inconclusive [inhibitor, partial curve]"
7,COc1ccc(Nc2nc(-c3ccncc3)nc3ccccc23)cc1,"inconclusive [inhibitor, partial curve, poor fit]"
8,COC(=O)c1ccc(OCC2c3cc(OC)c(OC)cc3CCN2C(C)=O)cc1 (stereo not given),"inconclusive [inhibitor, partial curve]"
9,COc1ccc(NC(=O)C2CCN(c3ncnc4c3nc3n4CCCCC3)CC2)cc1Cl,"inconclusive [inhibitor, partial curve]"
10,Fc1ccc(COc2ccc(Br)cc2CNCc2ccncc2)cc1,"inconclusive [inhibitor, single point]"
11,COc1ccc2cc3c(N)nn(C(=O)c4ccc(Cl)c([N+](=O)[O-])c4)c3nc2c1,active: 7.91 µM
12,CC(=C/c1ccccc1)/C=N/n1c(-c2ccncc2)n[nH]c1=S,"inconclusive [inhibitor, partial curve]"
13,CCOC(=O)c1c(NC(=O)C[n+]2ccc(N(C)C)cc2)sc(C)c1C,inactive
14,CC(NC(=O)c1ccccc1NC(=O)CN1CCN(c2ccccc2O)CC1)c1ccccc1 (stereo not given),"inconclusive [inhibitor, partial curve, poor fit]"
15,OCCN1CCN(c2ncnc3ccc(Br)cc23)CC1,"inconclusive [inhibitor, partial curve]"
16,C=CCc1c(OC(C)=O)c2ccccc2n(C)c1=O,active: 7.05 µM
17,Cc1ccc(NC(=O)CCc2nnc3ccc(N4CCC(C)CC4)nn23)nc1,inactive
18,CCOC(=O)C1CCN(c2cc3c(cc2NC(=O)c2ccccc2Br)n(C)c(=O)n3C)CC1,"inconclusive [inhibitor, partial curve]"
19,O=C1c2ccccc2N2C(=O)c3ccccc3[C@H]2N1c1ccccc1,"inconclusive [inhibitor, partial curve]"
20,COc1ccc(-c2cc(C(F)(F)F)n3nc(C(=O)Nc4cc(C)on4)cc3n2)cc1OC,inactive

row,Structure (SMILES),Potency
1,COc1cc2c(C(=O)Nc3ccccc3F)cn(C)c(=O)c2cc1OC,inactive
2,COc1ccc(-n2c(C)c(C(C)=O)c3cc(OC(C)=O)ccc32)cc1,"inconclusive [inhibitor, full curve]"
3,COc1cc(Cl)c(C)cc1NC(=O)CN(C)Cc1cccc(OC)c1OC,active: 15.8 µM
4,COc1ccccc1NC(=O)N(Cc1ccco1)Cc1cc2ccc(C)c(C)c2[nH]c1=O,"inconclusive [inhibitor, partial curve]"
5,COc1cc(C(=O)Oc2ccccc2/C=N/NC(=O)c2ccc(C)c(Cl)c2)cc(OC)c1OC,"inconclusive [inhibitor, partial curve, poor fit]"
6,Cc1ccccc1NC(=O)CSc1nc2ccc(Nc3nc(N4CCOCC4)nc(N4CCOCC4)n3)cc2s1,"inconclusive [inhibitor, partial curve, poor fit]"
7,COc1cc(NC(=O)c2cc(-c3ccccc3)nc3c2cnn3C(C)C)cc(OC)c1OC,"inconclusive [inhibitor, single point]"
8,COc1ccc(C(=O)N2CCc3cc(OC)c(OC)cc3C2c2ccc(OC)c(OC)c2)cc1OC (stereo not given),inactive
9,CCOC(=O)c1c(C)[nH]c(C(=O)N2CCc3cc(OC)c(OC)cc3C2)c1C,"inconclusive [inhibitor, partial curve, poor fit]"
10,Cc1nn(-c2ccc(NC(=O)c3ccncc3)cc2)c(C)c1Cl,active: 2.23 µM
11,O=C(Nc1ccccc1-c1nc2ccccc2[nH]1)c1ccc(N2C(=O)CCC2=O)cc1,"inconclusive [inhibitor, full curve]"
12,Cc1ccc(Cn2ccc(NC(=O)c3nn(C)cc3[N+](=O)[O-])n2)cc1,"inconclusive [inhibitor, full curve]"
13,CCCCSc1nc2ccc(Nc3nc(N4CCOCC4)nc(N4CCOCC4)n3)cc2s1,"inconclusive [inhibitor, single point]"
14,CC(C)NC(=O)Nc1cccc2c1O[C@H](CN(C)C(=O)Nc1ccc(C(F)(F)F)cc1)[C@@H](C)CN([C@H](C)CO)C2=O,inactive
15,O=C(Nc1cccc(/C=C/c2ccccn2)c1)c1ccc(-n2cncn2)cc1,"inconclusive [inhibitor, full curve]"
16,CCOC(=O)c1nc(Nc2ccc(C(C)=O)cc2)c2ccccc2n1,"inconclusive [inhibitor, partial curve, poor fit]"
17,NC(=O)c1sc2nc3c(c(-c4cccs4)c2c1N)CCCCC3,active: 4.45 µM
18,CCOc1ccc(C(=O)Nc2ccccc2N2CCN(C(=O)c3ccccc3)CC2)cc1[N+](=O)[O-],"inconclusive [inhibitor, partial curve]"
19,CCc1c(C)nc2cc(-c3cc(OC)cc(OC)c3)nn2c1N1CCN(CCN2CCOCC2)CC1,"inconclusive [inhibitor, partial curve, poor fit]"
20,COc1ccc2ncn(-c3ccccc3)c2c1,"inconclusive [inhibitor, full curve]"
